# Some of the results follow.
# What was measured:
# Experiment in all cases: glycan array binding signal (z-score within array); higher = stronger binding
# Details in all cases: glycan notation: IUPAC condensed, linker removed
# [1] = molecular target: Neu5Ac(a2-3)Gal(b1-4)GlcNAc6S
# How it was run: (§1)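 Glycan array binding is given as a within-array Z-score, which can be read as non-binding when negative. The arrays, 3228 of them, came from the Consortium for Functional Glycomics database and were retained only where the protein sequence was available. Z-scores were averaged across arrays of the same protein sequence at different concentrations or buffers and across linkers.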
# [2] = molecular target: Neu5Ac(a2-3)Gal(b1-4)[Fuc(a1-3)]GlcNAc
# How it was run: as §1
# [3] = molecular target: Neu5Ac(a2-3)Gal(b1-4)[Fuc(a1-3)]GlcNAc(b1-3)Gal
# How it was run: as §1
# [4] = molecular target: Neu5Ac(a2-3)Gal(b1-4)[Fuc(a1-3)]GlcNAc(b1-3)Gal(b1-4)GlcNAc
# How it was run: as §1
# [5] = molecular target: Neu5Ac(a2-3)Gal(b1-4)[Fuc(a1-3)]GlcNAc(b1-3)Gal(b1-4)[Fuc(a1-3)]GlcNAc(b1-3)Gal(b1-4)[Fuc(a1-3)]GlcNAc
# How it was run: as §1
# [6] = molecular target: Neu5Ac(a2-3)Gal(b1-4)[Fuc(a1-3)]GlcNAc6S
# How it was run: as §1
# [7] = molecular target: Neu5Ac(a2-3)Gal6S(b1-4)GlcNAc
# How it was run: as §1
# [8] = molecular target: Neu5Ac(a2-3)Gal6S(b1-4)[Fuc(a1-3)]GlcNAc
# How it was run: as §1
# [9] = molecular target: Neu5Ac(a2-3)GalNAc
# How it was run: as §1
# [10] = molecular target: Neu5Ac(a2-3)GalNAc(b1-4)GlcNAc
# How it was run: as §1
# [11] = molecular target: Neu5Ac(a2-3)[GalNAc(b1-4)]Gal(b1-4)Glc
# How it was run: as §1
# [12] = molecular target: Neu5Ac(a2-3)[GalNAc(b1-4)]Gal(b1-4)GlcNAc
# How it was run: as §1
# [13] = molecular target: Neu5Ac(a2-3)[Neu5Ac(a2-6)]GalNAc
# How it was run: as §1
# [14] = molecular target: Neu5Ac(a2-6)Gal
# How it was run: as §1
# [15] = molecular target: Neu5Ac(a2-6)Gal(b1-4)Glc
# How it was run: as §1
# [16] = molecular target: Neu5Ac(a2-6)Gal(b1-4)GlcNAc
# How it was run: as §1
# [17] = molecular target: Neu5Ac(a2-6)Gal(b1-4)GlcNAc(b1-3)Gal(b1-4)GlcNAc
# How it was run: as §1
# [18] = molecular target: Neu5Ac(a2-6)Gal(b1-4)GlcNAc(b1-3)Gal(b1-4)[Fuc(a1-3)]GlcNAc(b1-3)Gal(b1-4)[Fuc(a1-3)]GlcNAc
# How it was run: as §1
# [19] = molecular target: Neu5Ac(a2-6)Gal(b1-4)GlcNAc6S
# How it was run: as §1
# [20] = molecular target: Neu5Ac(a2-6)GalNAc
# How it was run: as §1
# [21] = molecular target: Neu5Ac(a2-6)GalNAc(b1-4)GlcNAc
# How it was run: as §1
# [22] = molecular target: Neu5Ac(a2-8)Neu5Ac
# How it was run: as §1
# [23] = molecular target: Neu5Ac(a2-8)Neu5Ac(a2-3)Gal(b1-4)Glc
# How it was run: as §1
# [24] = molecular target: Neu5Ac(a2-8)Neu5Ac(a2-3)[GalNAc(b1-4)]Gal(b1-4)Glc
# How it was run: as §1
# [25] = molecular target: Neu5Ac(a2-8)Neu5Ac(a2-8)Neu5Ac
# How it was run: as §1
# [26] = molecular target: Neu5Ac(a2-8)Neu5Ac(a2-8)Neu5Ac(a2-3)Gal(b1-4)Glc
# How it was run: as §1
# [27] = molecular target: Neu5Ac(a2-8)Neu5Ac(a2-8)Neu5Ac(a2-3)[GalNAc(b1-4)]Gal(b1-4)Glc
# How it was run: as §1
# [28] = molecular target: Neu5Ac(a2-8)Neu5Ac(a2-8)Neu5Ac(a2-8)Neu5Ac(a2-3)[GalNAc(b1-4)]Gal(b1-4)Glc
# How it was run: as §1
# [29] = molecular target: Neu5Ac(b1-6)GalNAc
# How it was run: as §1
# [30] = molecular target: Neu5Ac(b2-6)Gal(b1-4)GlcNAc
# How it was run: as §1
# [31] = molecular target: Neu5Ac9Ac(a2-6)Gal(b1-4)GlcNAc
# How it was run: as §1
# [32] = molecular target: Neu5Gc(a2-3)Gal(b1-3)GlcNAc
# How it was run: as §1
# [33] = molecular target: Neu5Gc(a2-3)Gal(b1-3)[Fuc(a1-4)]GlcNAc
# How it was run: as §1
# [34] = molecular target: Neu5Gc(a2-3)Gal(b1-4)Glc
# How it was run: as §1
# [35] = molecular target: Neu5Gc(a2-3)Gal(b1-4)GlcNAc
# How it was run: as §1
# [36] = molecular target: Neu5Gc(a2-3)Gal(b1-4)[Fuc(a1-3)]GlcNAc
# How it was run: as §1
# [37] = molecular target: Neu5Gc(a2-6)Gal(b1-4)GlcNAc
# How it was run: as §1
# [38] = molecular target: Neu5Gc(a2-6)GalNAc
# How it was run: as §1
binder,measurement,setting,value
RS-IIL (Ralstonia solanacearum) (protein) AQQGVFTLPANTSFGVTAFANAANTQTIQVLVDNVVKATFTGSGTSDKLLGSQVLNSGSGAIKIQVSVNGKPSDLVSNQTILANKLNFAMVGSEDGTDNDYNDGIAVLNWPLG,glycan array binding signal (z-score),[1],-0.38
same,glycan array binding signal (z-score),[2],-0.276
same,glycan array binding signal (z-score),[3],-0.263
same,glycan array binding signal (z-score),[4],-0.268
same,glycan array binding signal (z-score),[5],0.025
same,glycan array binding signal (z-score),[6],-0.294
same,glycan array binding signal (z-score),[7],-0.327
same,glycan array binding signal (z-score),[8],-0.312
same,glycan array binding signal (z-score),[9],-0.389
same,glycan array binding signal (z-score),[10],-0.389
same,glycan array binding signal (z-score),[11],-0.389
same,glycan array binding signal (z-score),[12],-0.381
same,glycan array binding signal (z-score),[13],-0.389
same,glycan array binding signal (z-score),[14],-0.334
same,glycan array binding signal (z-score),[15],-0.386
same,glycan array binding signal (z-score),[16],-0.385
same,glycan array binding signal (z-score),[17],-0.389
same,glycan array binding signal (z-score),[18],0.065
same,glycan array binding signal (z-score),[19],-0.389
same,glycan array binding signal (z-score),[20],-0.388
same,glycan array binding signal (z-score),[21],-0.389
same,glycan array binding signal (z-score),[22],-0.388
same,glycan array binding signal (z-score),[23],-0.377
same,glycan array binding signal (z-score),[24],-0.384
same,glycan array binding signal (z-score),[25],-0.375
same,glycan array binding signal (z-score),[26],-0.389
same,glycan array binding signal (z-score),[27],-0.368
same,glycan array binding signal (z-score),[28],-0.367
same,glycan array binding signal (z-score),[29],-0.389
same,glycan array binding signal (z-score),[30],-0.388
same,glycan array binding signal (z-score),[31],-0.383
same,glycan array binding signal (z-score),[32],-0.388
same,glycan array binding signal (z-score),[33],0.4
same,glycan array binding signal (z-score),[34],-0.385
same,glycan array binding signal (z-score),[35],-0.388
same,glycan array binding signal (z-score),[36],-0.319
same,glycan array binding signal (z-score),[37],-0.388
same,glycan array binding signal (z-score),[38],-0.389

# Source: the supplement of paper PMC8728848
